Experimental data as given in patent US5006515A, “Pharmaceuticals, phosphorus-containing 2-isoxazolines and isoxazoles contained therein” (Hoechst Aktiengesellschaft, priority 1987, dated 1991).
For some of these results: The name of at least one read-out is uncertain. For some of these results: For at least one compound, name, drawing or mass did not settle the structure.

Tests used:
peritoneal macrophages [1] = experiment: Activation of peritoneal macrophages: chemiluminescence (oxidative metabolism); conditions: single i.p. dose of 40 mg/kg; maximum activation by Example 34 = 100%
peritoneal macrophages [2] = experiment: Stimulation of the release of lysosomal enzymes from peritoneal macrophages (exocytosis); conditions: single i.p. dose of 40 mg/kg; maximum activation by Example 34 = 100%
active Arthus reaction = experiment: Active Arthus reaction in the rat; assay type: in vivo, Sprague-Dawley rats; conditions: oral dose 25 mg/kg, 4 h after ovalbumin challenge
Description: The experimental animals used were female and male Sprague-Dawley rats with a body weight between 80 and 100 g which received subcutaneous injections into the tail-head of 0.5 ml of an emulsion of pertussis vaccine and ovalbumin in liquid paraffin. After two weeks, the rats were divided into groups each of 8 animals. 24 hours and 1 hour before induction of the Arthus reaction by injection of 0.1 ml of a 0.4% strength ovalbumin solution into the right hind paw, the particular test substance or the pure vehicle (positive control) was administered orally, sodium chloride solution was injected into the left paw. One group of unsensitized animals (negative control group) was likewise treated with ovalbumin in order to be able to rule out nonspecific reactions to the protein. The parameter used for measuring the action of the product was the percentage change in the increase in paw volume compared with that in the control group which was sensitized but untreated (positive control) 4 hours after ovalbumin challenge, when the swelling had reached its maximum.

SMILES | Relative stimulation of macrophage activity: Chemiluminescence (peritoneal macrophages [1]) [%] | Relative stimulation of macrophage activity: Exocytosis (peritoneal macrophages [2]) [%] | Active Arthus reaction % change (active Arthus reaction) [%]
COP(C)(=O)C1CC(c2ccccc2)=NO1 (stereo not shown) [Example 13, Methyl 3-phenyl-2-isoxazolin-5-yl(P-methyl)phosphinate] | 64 | 51 | –
CCOP(=O)(O)C1CC(c2ccccc2)=NO1 (stereo not shown) [Example 27, Monoethyl 3-phenyl-2-isoxazolin-5-ylphosphonate] | 63 | 78 | –
CCOP(=O)(O)C1CC(c2ccc(OC)cc2)=NO1 (stereo not shown) [Example 28, Monoethyl ammonium 3-(4-methoxyphenyl)-2-isoxazolin-5-ylphosphonate] | 31 | 47 | –
CCCC1=NOC(P(=O)(O)O)C1 (stereo not shown) [Example 47] | 44 | 32 | –
CCOP(=O)(C1CC(c2ccccc2)=NO1)N1CCCC1 (stereo not shown) [Example 55, 3-Phenyl-2-isoxazolin-5-yl(P-ethoxy)phosphonic acid pyrrolidide] | 46 | 67 | –
CCOP(=O)(NCC(=O)OCc1ccccc1)C1CC(c2ccccc2)=NO1 (stereo not shown) [Example 56, N-[3-Phenyl-2-isoxazolin-5-yl(P-ethoxy)phosphonoyl]glycine benzyl ester] | – | 43 | –
COP(=O)(OC)C1CC(c2ccc(F)cc2)=NO1 (stereo not shown) [Example 65] | – | – | -25
Br.CN(C)c1ccc(C2=NOC(P(=O)(O)O)C2)cc1 (stereo not shown) [Example 71, 3-(4-Dimethylaminophenyl)-2-isoxazolin-5-ylphosphonic acid hydrobromide] | 37 | 35 | –
CP(=O)(O)CC1CC(Cl)=NO1 (stereo not shown) [Example 79, 3-Chloro-2-isoxazolin-5-ylmethyl(P-methyl)phosphinic acid] | 44 | 57 | –
